Results reported in PubChem BioAssay AID588855 (National Center for Advancing Translational Sciences (NCATS), 2011).
Among all 410,000 compounds or so, about 5,000 (1.2%) were called active. Inconclusive results, whose numbers are uncertain, are shown with a selection of clear calls. The call rests on the fitted dose curve; in most records, active means well fitted inhibition curve with a large enough effect; inconclusive means small, poorly fitted or top-dose-only effect; inactive means no such curve, though single readings can be large or run the other way. Potencies of inconclusive entries are doubtful fits and often do not repeat.

Assay: qHTS for Inhibitors of TGF-b; further: nearly all actives have a fitted effect of over 65% in size
Conditions: HepG2 CAGA-GFP TGF-b/SMAD3 reporter, GFP fluorescence, 18 h, TGF-beta stimulated, 500 pg/mL final; series mostly up to 46.1 µM; activity, negative = inhibition: at the top concentration
How it was run: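 Inhibition was scored as loss of TGF-beta-induced (500 pg/mL final, 18 hours, 37 degrees C) GFP in HEPG2 cells carrying a CAGA-GFP reporter, in DMEM with 1% FBS. Well GFP was summed per cell; Activity was normalised to unstimulated and stimulated DMSO wells, then concentration-response fitting.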
On the % scale 0 is the no-effect control and ±100 the full control effect; potency means the concentration at half of the fitted maximal effect; tags describe the fitted curve by direction and shape.

Which “activity, negative = inhibition” value does the source give for `O=[N+]([O-])c1ccc(SCCc2ccccn2)cc1` here?
Its value is inactive: 9.92%.

With `O=C(CSc1n[nH]c(=O)n1Cc1ccccc1)Nc1ccc(F)c(F)c1F` as the molecule, how does the “activity, negative = inhibition” value read?
The value was inactive: 4.4%.

With `CCOc1cc(CNC(=O)c2ccc(C)c(NC(=O)c3nsc4ccccc34)c2)ccc1OC` as the molecule, how does the “activity, negative = inhibition” value read?
Its value is inactive: -24.8%.

With `Cc1cc(NC(=O)CSCC(=O)N(C)Cc2cccc(Cl)c2)no1` as the molecule, how does the Potency read?
Its Potency is inconclusive: 6.31 µM [inhibitor, single point].

With `COc1cc(OC)cc(C(=O)N[C@H](C(=O)OCC(=O)Nc2ccc(C(N)=O)cc2)C(C)C)c1` as the molecule, how does the Potency read?
The Potency was inconclusive: 6.31 µM [inhibitor, single point].

With `O=C(NCCN1CCCC1=O)C1CCC(=O)N(CCc2ccc(Cl)cc2)C1` (stereo unspecified) as the molecule, how does the Potency read?
Its Potency is inconclusive: 6.31 µM [inhibitor, single point].

For `CC(C)CNc1ncnc2oc(-c3ccco3)c(-c3ccco3)c12`, which Potency is on record?
Its Potency is inconclusive: 3.98 µM [inhibitor, full curve].

For `COc1ccc(CN(C)C(=O)C2CCN(C(=O)Nc3ccccc3)CC2)cc1`, which Potency is on record?
The Potency was inconclusive: 35.5 µM [inhibitor, partial curve, poor fit].

For `CCc1ccc(/C=C/C(=O)c2ccc(S(=O)(=O)N(C)C)cc2)cc1`, which Potency is on record?
Its Potency is inconclusive: 35.5 µM [inhibitor, single point].

With `CCOC(=O)c1c(NC(=O)CN2CCCCC2)sc2c1CCC(C=O)=C2Cl` as the molecule, how does the “activity, negative = inhibition” value read?
Its value is inactive: 1.29%.

With `C=C(C)CN=CC1(C)CCC(C)=CO1` (stereo unspecified) as the molecule, how does the “activity, negative = inhibition” value read?
The value was inactive: 7.97%.

For `CCOc1ccc2[nH]c(=O)c(CN(Cc3ccc(F)cc3)C(=O)c3ccco3)cc2c1`, which Potency is on record?
Its Potency is inconclusive: 35.5 µM [inhibitor, single point].

For `O=C(O)CCC(=O)N1CCN(S(=O)(=O)c2cccs2)CC1`, which Potency is on record?
The Potency was inconclusive: 4.47 µM [inhibitor, single point].

Which Potency does the source give for `CN(C)S(=O)(=O)c1ccc(NC(=O)CNc2cc(S(=O)(=O)N3CCCC3)ccc2OCC(F)(F)F)cc1` here?
The Potency was inconclusive: 25.1 µM [inhibitor, single point].

Which Potency does the source give for `Cc1nc2cc(NS(=O)(=O)c3c(C)c(C)cc(C)c3C)ccc2s1` here?
The Potency was inconclusive: 35.5 µM [inhibitor, single point].

Which Potency does the source give for `Cc1ccc(-n2c(C)cc(C(=O)Cn3nc(C(=O)O)c4ccccc4c3=O)c2C)cc1` here?
Its Potency is inconclusive: 35.5 µM [inhibitor, single point].

Which “activity, negative = inhibition” value does the source give for `Cc1[nH][nH]c(=O)c1[C@@H](c1ccccc1[N+](=O)[O-])C(C#N)C#N` here?
The value was inactive: -15.2%.

With `Cc1ccc(F)c(CNC(=O)C2CCC(=O)N(CCCN3CCCC3=O)C2)c1F` (stereo unspecified) as the molecule, how does the “activity, negative = inhibition” value read?
The value was inactive: 4.66%.

For `Cn1c(CC(=O)Nc2ccc(Cl)c(Cl)c2)nnc1SCC(=O)N1CCN(c2ccccc2)CC1`, which Potency is on record?
Its Potency is inconclusive: 20 µM [inhibitor, single point].

With `O=C(NCC1CCCO1)C(C(=O)c1ccccc1)n1ccccc1=O` (stereo unspecified) as the molecule, how does the “activity, negative = inhibition” value read?
The value was inactive: 5.49%.

For `N#CC(C(=S)Nc1ccccc1)c1nc2ccccc2[nH]1` (stereo unspecified), which Potency is on record?
The Potency was inconclusive: 2.24 µM [inhibitor, full curve].

With `COc1ccccc1NC(=O)COc1ccc(Br)cc1CO` as the molecule, how does the “activity, negative = inhibition” value read?
The value was inactive: -0.987%.

Which Potency does the source give for `O=S(=O)(NCCC1=CCCCC1)c1ccc(OC(F)(F)F)cc1` here?
The Potency was inconclusive: 35.5 µM [inhibitor, single point].

For `CCCCn1nc(C(=O)Nc2ccc3c(c2)OCCO3)c2ccccc2c1=O`, which “activity, negative = inhibition” value is on record?
Its value is inactive: -21.4%.

Which Potency does the source give for `Cc1ccc(NC(=O)N2CCCC(c3nc(-c4ccc(F)cc4)no3)C2)cc1` (stereo unspecified) here?
The Potency was inconclusive: 11.2 µM [inhibitor, partial curve, poor fit].

Which Potency does the source give for `O=C(N/N=C/c1cccc(F)c1)c1ccc(Cl)cc1` here?
Its Potency is inconclusive: 0.1 µM [inhibitor, full curve, poor fit].

With `O=C(CCCCCN1C(=O)CCC1=O)Nc1ccc(Br)cc1F` as the molecule, how does the Potency read?
Its Potency is inconclusive: 0.112 µM [inhibitor, full curve, poor fit].

Which “activity, negative = inhibition” value does the source give for `Cc1cc(Nc2cccc(C(F)(F)F)c2)ncn1` here?
The value was inactive: -7.34%.

For `CN(c1ccccc1)S(=O)(=O)c1cc(C(=O)N2CCN(c3ncccn3)CC2)ccc1Cl`, which “activity, negative = inhibition” value is on record?
The value was inactive: -18.2%.

Which “activity, negative = inhibition” value does the source give for `COc1ccc(C(=O)c2ccc(OC)cc2OC)cc1` here?
The value was inactive: -14.3%.

For `CN(C)C(=S)Nc1ccc2c(c1)OCCO2`, which “activity, negative = inhibition” value is on record?
The value was inactive: 14.2%.

For `O=C(NCCS(=O)(=O)N1CCN(c2ccccc2F)CC1)c1c(F)cccc1F`, which “activity, negative = inhibition” value is on record?
Its value is inactive: -25.6%.

With `Cc1cc(C)cc(NC(=O)CN2C(=O)COc3ccc(S(=O)(=O)Nc4ccccc4)cc32)c1` as the molecule, how does the Potency read?
The Potency was inconclusive: 12.6 µM [inhibitor, partial curve, poor fit].

For `O=C(COc1ccc2c(c1)oc(=O)c1ccccc12)NCCCN1CCOCC1`, which Potency is on record?
The Potency was inconclusive: 22.4 µM [inhibitor, single point].

Which Potency does the source give for `C=CCn1c(O)c(N=NC(=S)Nc2ccccc2F)c2ccccc21` here?
The Potency was inconclusive: 1.26 µM [inhibitor, full curve, poor fit].

For `CC(C)(C)OC(=O)NCCCC[C@H](NC(=O)c1nc[nH]c1C(=O)NC1CCN(C(=O)OC(C)(C)C)CC1)C(=O)OC(C)(C)C`, which Potency is on record?
Its Potency is inconclusive: 35.5 µM [inhibitor, single point].

With `O=C(CN(C1CCCCC1)S(=O)(=O)c1ccc(F)cc1)NCCCO` as the molecule, how does the Potency read?
The Potency was inconclusive: 0.562 µM [inhibitor, full curve].

Which Potency does the source give for `CCCN(CCC)Cc1cc(=O)oc2cc(C)cc(C)c12` here?
Its Potency is inconclusive: 22.4 µM [inhibitor, single point].

Which Potency does the source give for `O=C(CN1CCCCCC1)Nc1ccc(Br)cc1[N+](=O)[O-]` here?
Its Potency is inconclusive: 0.1 µM [inhibitor, full curve, poor fit].

For `CCOC(=O)c1ccccc1NC(=O)CSc1nc2ncccc2o1`, which “activity, negative = inhibition” value is on record?
Its value is inactive: -1.35%.

For `COc1ccc2oc(=O)c(C(=O)NCCc3ccc(OC)c(OC)c3)cc2c1`, which “activity, negative = inhibition” value is on record?
Its value is inactive: -0.0263%.

With `Cc1cccc(N2CCN(C(=O)c3nn(C)c4c3CSc3ccccc3-4)CC2C)c1` (stereo unspecified) as the molecule, how does the Potency read?
Its Potency is inconclusive: 31.6 µM [inhibitor, single point].

With `O=C(CC(SCCO)c1ccc2c(c1)OCO2)c1cccs1` (stereo unspecified) as the molecule, how does the Potency read?
Its Potency is inconclusive: 35.5 µM [inhibitor, single point].

Which “activity, negative = inhibition” value does the source give for `COc1ccc2cc3cc(C(=O)NCc4ccccn4)oc3nc2c1` here?
The value was inactive: -3.08%.

Which Potency does the source give for `COc1ccc2ccc(OC)c(/C=N/n3cnnc3)c2c1` here?
Its Potency is inconclusive: 35.5 µM [inhibitor, single point].

Which “activity, negative = inhibition” value does the source give for `COc1ccc(C(=O)c2ccc([N+](=O)[O-])cc2)cc1S(=O)(=O)N1CCC(C(=O)O)CC1` here?
The value was inactive: 1.76%.

Which Potency does the source give for `CCN(CCCNC(=O)c1cc2cc3cc(OC)ccc3nc2s1)c1cccc(C)c1` here?
The Potency was inconclusive: 35.5 µM [inhibitor, single point].

Which Potency does the source give for `Cc1cc2c(cc3c(SCc4ccc(Cl)cc4)nnc(C)n32)o1` here?
Its Potency is inconclusive: 35.5 µM [inhibitor, single point].

Which “activity, negative = inhibition” value does the source give for `CC(=O)Nc1ccc(S(=O)(=O)NCC(=O)OCC(=O)N2CCCc3ccccc32)cc1` here?
The value was inactive: 10.9%.

For `Cn1c(SCC(=O)Nc2ccccc2)nc2ccccc2c1=O`, which “activity, negative = inhibition” value is on record?
Its value is inactive: -8.52%.

Which “activity, negative = inhibition” value does the source give for `COc1ccc(/C=N/N2C(=O)CSC2=S)cc1` here?
Its value is inactive: 3.45%.

For `CC1=CC(C)(C)N2C(=O)C(=Nc3ccc(O)cc3)c3cccc1c32`, which Potency is on record?
Its Potency is active: 12.6 µM.

For `Cc1noc(C)c1CC(=O)N1CCCC(C(=O)c2ccc(C(C)(C)C)cc2)C1` (stereo unspecified), which Potency is on record?
The Potency was inconclusive: 35.5 µM [inhibitor, single point].

Which “activity, negative = inhibition” value does the source give for `CCC(=O)Nc1ccc(N2CCOCC2)c(S(=O)(=O)Nc2ccc(Cl)cc2)c1` here?
Its value is inactive: 5.93%.

With `O=C(OCC(=O)C12CC3CC(CC(C3)C1)C2)c1ccc(CO)cc1` as the molecule, how does the Potency read?
The Potency was inconclusive: 14.1 µM [inhibitor, single point].

With `O=C(Nc1cccnc1)c1cc(-c2ccc(Br)cc2)nc2ccccc12` as the molecule, how does the Potency read?
The Potency was inconclusive: 35.5 µM [inhibitor, single point].

Which Potency does the source give for `CCCCCCN1C[C@H](n2cc(C3CC3)nn2)[C@@H](O)C[C@@H]1c1ccc(C)cc1` here?
The Potency was active: 14.1 µM.

For `NC(=S)N/N=C1\CCSc2ccc(Cl)cc21`, which “activity, negative = inhibition” value is on record?
Its value is inactive: -16.4%.

With `Cc1ccc(F)c(C2C3C=CCCC3(C)C(=O)N2Cc2ccccc2)c1` (stereo unspecified) as the molecule, how does the Potency read?
Its Potency is inconclusive: 35.5 µM [inhibitor, single point].

For `CCN1C(=O)C(C(=O)Nc2ccc(OC)cc2)C2CC1(C)Oc1ccccc12` (stereo unspecified), which Potency is on record?
The Potency was inconclusive: 22.4 µM [inhibitor, single point].

Which Potency does the source give for `Cc1ccc(-c2nc3sccn3c2Nc2ccccc2C)cc1` here?
The Potency was inconclusive: 35.5 µM [inhibitor, single point].

With `CC(/C=C1\SC(=S)N(c2ccc(C(=O)O)cc2)C1=O)=C\c1ccccc1` as the molecule, how does the Potency read?
The Potency was inconclusive: 35.5 µM [inhibitor, single point].

Which Potency does the source give for `COc1cccc(CNC(=O)CN2C(=O)CSc3ccc(S(=O)(=O)N(C)C)cc32)c1` here?
Its Potency is inconclusive: 17.8 µM [inhibitor, single point].

Which Potency does the source give for `CCOC(=O)C1=C(N)Oc2cc(O)ccc2C1c1ccccc1` (stereo unspecified) here?
The Potency was inconclusive: 25.1 µM [inhibitor, single point].

Which “activity, negative = inhibition” value does the source give for `CC1CCN(C(=O)c2cnn(-c3ccc(Cl)cc3)c2C2CCN(C(=O)OC(C)(C)C)CC2)CC1` here?
The value was inactive: -20.6%.

With `Cc1ccc(C)c(N=Nc2nc3ccccc3n2C)c1` as the molecule, how does the Potency read?
Its Potency is inconclusive: 10 µM [inhibitor, partial curve, poor fit].

For `CC1(C(=O)Nc2ccc(Cl)c(Cl)c2)CCN1C(=O)CCC1CCCC1` (stereo unspecified), which Potency is on record?
Its Potency is inconclusive: 17.8 µM [inhibitor, single point].

For `Cc1ccc(O)c(-c2cc(C(F)(F)F)[nH]n2)c1`, which Potency is on record?
Its Potency is inconclusive: 35.5 µM [inhibitor, single point].

Which “activity, negative = inhibition” value does the source give for `CCC(C(=O)NC1CCCC1)N(C(=O)Cn1nnc(-c2ccc(C)o2)n1)c1cccc(OC)c1` (stereo unspecified) here?
The value was inactive: 3.64%.

With `CCCCN(Cc1ccco1)S(=O)(=O)c1c[nH]c(C(=O)OC)c1` as the molecule, how does the Potency read?
The Potency was inconclusive: 8.91 µM [inhibitor, partial curve, poor fit].

Which Potency does the source give for `CC1CCN(c2nc(/C=C/c3ccccc3)nc3ccccc23)CC1` here?
The Potency was inconclusive: 35.5 µM [inhibitor, single point].
